# Reference: the supplement of paper PMC8728848
# This is one part of the list.
# How the values were obtained:
# Assay in all cases: glycan array binding signal (z-score within array); higher = stronger binding
# Conditions in all cases: glycan notation: IUPAC condensed, linker removed
# [1] = target: Gal(b1-4)GlcNAc(b1-3)Gal(b1-4)GlcNAc(b1-3)[Gal(b1-4)GlcNAc(b1-3)Gal(b1-4)GlcNAc(b1-6)]GalNAc
# Outline: (§1)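 Glycan array binding is given as a within-array Z-score, which can be read as non-binding when negative. The arrays, 3228 of them, came from the Consortium for Functional Glycomics database and were retained only where the protein sequence was available. Z-scores were averaged across arrays of the same protein sequence at different concentrations or buffers and across linkers.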
# [2] = target: Gal(b1-4)GlcNAc(b1-3)Gal(b1-4)GlcNAc(b1-6)[Gal(b1-3)]GalNAc
# Outline: as §1
# [3] = target: Gal(b1-4)GlcNAc(b1-3)Gal(b1-4)[Fuc(a1-3)]GlcNAc(b1-3)Gal(b1-4)[Fuc(a1-3)]GlcNAc
# Outline: as §1
# [4] = target: Gal(b1-4)GlcNAc(b1-3)GalNAc
# Outline: as §1
# [5] = target: Gal(b1-4)GlcNAc(b1-3)[Fuc(a1-3)GlcNAc(b1-6)]Gal(b1-4)Glc
# Outline: as §1
# [6] = target: Gal(b1-4)GlcNAc(b1-3)[Gal(b1-4)GlcNAc(b1-6)]Gal(b1-4)GlcNAc
# Outline: as §1
# [7] = target: Gal(b1-4)GlcNAc(b1-3)[GlcNAc(b1-6)]Gal(b1-4)GlcNAc
# Outline: as §1
# [8] = target: Gal(b1-4)GlcNAc(b1-6)Gal(b1-4)GlcNAc
# Outline: as §1
# [9] = target: Gal(b1-4)GlcNAc(b1-6)GalNAc
# Outline: as §1
# [10] = target: Gal(b1-4)GlcNAc(b1-6)[Gal(b1-3)]GalNAc
# Outline: as §1
# [11] = target: Gal(b1-4)GlcNAc(b1-6)[Gal(b1-4)GlcNAc(b1-3)]GalNAc
# Outline: as §1
# Gal(b1-4)GlcNAc6P = target: Gal(b1-4)GlcNAc6P
# Outline: as §1
# Gal(b1-6)Gal = target: Gal(b1-6)Gal
# Outline: as §1
# Gal3S(b1-3)GalNAc = target: Gal3S(b1-3)GalNAc
# Outline: as §1
# Gal3S(b1-3)GlcNAc = target: Gal3S(b1-3)GlcNAc
# Outline: as §1
# [12] = target: Gal3S(b1-3)[Fuc(a1-4)]GlcNAc
# Outline: as §1
# Gal3S(b1-4)Glc = target: Gal3S(b1-4)Glc
# Outline: as §1
# Gal3S(b1-4)Glc6S = target: Gal3S(b1-4)Glc6S
# Outline: as §1
# Gal3S(b1-4)GlcNAc = target: Gal3S(b1-4)GlcNAc
# Outline: as §1
# [13] = target: Gal3S(b1-4)[Fuc(a1-3)]Glc6S
# Outline: as §1
# [14] = target: Gal3S(b1-4)[Fuc(a1-3)]GlcNAc
# Outline: as §1
# [15] = target: Gal3S(b1-4)[Fuc(a1-3)]GlcNAc6S
# Outline: as §1
# Gal3S4S(b1-4)GlcNAc = target: Gal3S4S(b1-4)GlcNAc
# Outline: as §1
# Gal3S6S(b1-4)GlcNAc = target: Gal3S6S(b1-4)GlcNAc
# Outline: as §1
# Gal3S6S(b1-4)GlcNAc6S = target: Gal3S6S(b1-4)GlcNAc6S
# Outline: as §1
# Gal4S(b1-4)GlcNAc = target: Gal4S(b1-4)GlcNAc
# Outline: as §1
# Gal4S6S(b1-4)GlcNAc = target: Gal4S6S(b1-4)GlcNAc
# Outline: as §1
# Gal6P(b1-4)GlcNAc = target: Gal6P(b1-4)GlcNAc
# Outline: as §1
# Gal6S(b1-3)GlcNAc = target: Gal6S(b1-3)GlcNAc
# Outline: as §1
# Gal6S(b1-3)GlcNAc6S = target: Gal6S(b1-3)GlcNAc6S
# Outline: as §1
# Gal6S(b1-4)Glc = target: Gal6S(b1-4)Glc
# Outline: as §1
# Gal6S(b1-4)Glc6S = target: Gal6S(b1-4)Glc6S
# Outline: as §1
# Gal6S(b1-4)GlcNAc = target: Gal6S(b1-4)GlcNAc
# Outline: as §1
# Gal6S(b1-4)GlcNAc6S = target: Gal6S(b1-4)GlcNAc6S
# Outline: as §1
# GalNAc(a1-3)Gal = target: GalNAc(a1-3)Gal
# Outline: as §1
# GalNAc(a1-3)GalNAc = target: GalNAc(a1-3)GalNAc
# Outline: as §1
# [16] = target: GalNAc(a1-3)GalNAc(b1-3)Gal(a1-4)Gal(b1-4)Glc
# Outline: as §1
binder,measurement,setting,value
"AT5G01260(PC)(40) (Arabidopsis thaliana), Q9LFB0 (protein) MIGIGRTLTSSSPSKIILEDLPPGIYRYGTEIFTSVPRKTFHHIKFLRLDSAQSSRILKPVPLRSSSIKDSQVNVEDEEIEASNKTVRVRFQLRKECVFGEHFFIVGDDPVFGGLWDPETALPLNWSDGNVWTVDLDLPVGRLVEFKLLLKAQTGEILWQPGPNRALETWETNKTIRICEDWDNADLQMMIEEDFVPYTNISSIGSEDEDEVLGSVQQNSSVVAVENAGYVSDESAQNSSFSIQSEKTMEPSNGALTAREVIKEAMFTEEESPVLVPGLIPLSDLDNEQVEVINEGKAETFPEVDKKQEPKAERNKKAKVKAISLFEKSEQEAVKSVEQRQYNAVEEEQQRLETEPLGTPDVLFENDIQWGRRTLYKLLSNFRLF",glycan array binding signal (z-score),[1],-0.184
same,glycan array binding signal (z-score),[2],0.462
same,glycan array binding signal (z-score),[3],-0.623
same,glycan array binding signal (z-score),[4],-0.184
same,glycan array binding signal (z-score),[5],-0.229
same,glycan array binding signal (z-score),[6],0.104
same,glycan array binding signal (z-score),[7],-0.442
same,glycan array binding signal (z-score),[8],-0.598
same,glycan array binding signal (z-score),[9],0.07
same,glycan array binding signal (z-score),[10],-0.341
same,glycan array binding signal (z-score),[11],-0.088
same,glycan array binding signal (z-score),Gal(b1-4)GlcNAc6P,0.092
same,glycan array binding signal (z-score),Gal(b1-6)Gal,-0.292
same,glycan array binding signal (z-score),Gal3S(b1-3)GalNAc,0.582
same,glycan array binding signal (z-score),Gal3S(b1-3)GlcNAc,0.245
same,glycan array binding signal (z-score),[12],0.473
same,glycan array binding signal (z-score),Gal3S(b1-4)Glc,-0.346
same,glycan array binding signal (z-score),Gal3S(b1-4)Glc6S,0.724
same,glycan array binding signal (z-score),Gal3S(b1-4)GlcNAc,-0.288
same,glycan array binding signal (z-score),[13],4.34
same,glycan array binding signal (z-score),[14],-0.128
same,glycan array binding signal (z-score),[15],0.239
same,glycan array binding signal (z-score),Gal3S4S(b1-4)GlcNAc,-1.04
same,glycan array binding signal (z-score),Gal3S6S(b1-4)GlcNAc,0.154
same,glycan array binding signal (z-score),Gal3S6S(b1-4)GlcNAc6S,1.1
same,glycan array binding signal (z-score),Gal4S(b1-4)GlcNAc,-0.245
same,glycan array binding signal (z-score),Gal4S6S(b1-4)GlcNAc,-0.174
same,glycan array binding signal (z-score),Gal6P(b1-4)GlcNAc,0.002
same,glycan array binding signal (z-score),Gal6S(b1-3)GlcNAc,-0.089
same,glycan array binding signal (z-score),Gal6S(b1-3)GlcNAc6S,-0.529
same,glycan array binding signal (z-score),Gal6S(b1-4)Glc,-0.226
same,glycan array binding signal (z-score),Gal6S(b1-4)Glc6S,-0.658
same,glycan array binding signal (z-score),Gal6S(b1-4)GlcNAc,-0.814
same,glycan array binding signal (z-score),Gal6S(b1-4)GlcNAc6S,0.388
same,glycan array binding signal (z-score),GalNAc(a1-3)Gal,0.854
same,glycan array binding signal (z-score),GalNAc(a1-3)GalNAc,-0.448
same,glycan array binding signal (z-score),[16],-0.513
